From PubChem BioAssay AID624417 (National Center for Advancing Translational Sciences (NCATS), 2012)
Out of some 410,000 compounds screened, about 6,400 (1.6%) were called active. The inconclusive results got no clear call from the source; some entries with a clear call stand among them for comparison. Calls follow the shape of the dose curve; as a rule, active = well fitted inhibition curve with a large enough effect; inconclusive = small, poorly fitted or top-dose-only effect; inactive = no such curve, though single readings can be large or run the other way. No potency is given beside an inconclusive call; the fits are too rough.

target: Glucagon-like peptide 1 receptor (Homo sapiens) (UniProt P43220); experiment: qHTS of GLP-1 Receptor Inverse Agonists (Inhibition Mode); conditions: HEK293 GLP-1R CRE-luciferase, luminescence, 24 h, GLP-1R form is constitutively active; activity change, negative = inhibition: at 38.3 µM (top of the series) unless noted; also: nearly all actives have a fitted effect of over 55% in size
Outline: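 Luminescence readout: a drop in cAMP-driven luciferase signal flags inverse agonism at a constitutively active GLP-1R stably expressed in HEK293. Compound exposure lasted 24 hr at 37 deg C, 5% CO2.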
% is scaled to controls: 0 for no effect and ±100 for the full control effect; potency is read from the fitted curve at half-maximal effect; tags tell the direction and shape of the fitted curve.

Chain of UniProt P43220 (P43220 whole entry, looked up): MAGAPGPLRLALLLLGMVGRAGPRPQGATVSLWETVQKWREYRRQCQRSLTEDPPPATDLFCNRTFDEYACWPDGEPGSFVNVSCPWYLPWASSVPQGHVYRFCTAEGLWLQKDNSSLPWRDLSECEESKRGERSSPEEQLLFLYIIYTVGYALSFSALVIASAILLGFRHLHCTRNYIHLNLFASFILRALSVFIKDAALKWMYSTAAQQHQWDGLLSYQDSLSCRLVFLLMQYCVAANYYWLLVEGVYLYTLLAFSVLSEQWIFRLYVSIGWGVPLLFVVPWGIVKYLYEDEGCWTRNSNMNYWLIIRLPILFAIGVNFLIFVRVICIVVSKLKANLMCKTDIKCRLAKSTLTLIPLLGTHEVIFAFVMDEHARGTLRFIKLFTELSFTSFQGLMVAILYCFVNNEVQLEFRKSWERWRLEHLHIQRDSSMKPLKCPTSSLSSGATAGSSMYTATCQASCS

Q: O=C(CNC(=S)NC(=O)c1ccc(Br)o1)c1ccccc1 was tested. Which “activity change, negative = inhibition” value did it give?
A: inactive: -14.4%

Q: OCc1nc2ccccc2n1CCCOc1ccc(Br)cc1 was tested. Which Potency did it give?
A: inconclusive [inhibitor, partial curve, poor fit]

Q: Which “activity change, negative = inhibition” value does the source give for CCC(=O)Nc1ccc(N2CCN(C(=O)c3cccs3)CC2)cc1 here?
A: inactive: -9.31%

Q: CCCS(=O)(=O)N1CCN(Cc2ccccc2OCC)CC1 was tested. Which Potency did it give?
A: inconclusive [inhibitor, partial curve, poor fit]

Q: With Cn1c(=O)oc2cc(S(=O)(=O)N3CCCC(C(=O)NCCc4ccccc4)C3)ccc21 (centres undefined) as the molecule, how does the “activity change, negative = inhibition” value read?
A: inactive: 16.4%

Q: Cc1cc(Cl)cc2c1NC(=O)[C@]21[C@@H]2C(=O)N(Cc3ccccc3)C(=O)[C@@H]2[C@@H]2CCCN21 was tested. Which Potency did it give?
A: inconclusive [inhibitor, partial curve, poor fit]

Q: For O=S(=O)(c1ccccc1)N(Cc1nc(-c2ccccc2)no1)C1CCCCC1, which Potency is on record?
A: active: 6.31 µM

Q: O=C(CN1C(=O)NC2(CCCCC2)C1=O)Nc1ccc2c(c1)CCC2 was tested. Which Potency did it give?
A: inconclusive [inhibitor, partial curve, poor fit]

Q: Cc1ccc(CNC(=O)c2c[nH]n3c(=O)c(Cc4ccc(Cl)cc4)c(C)nc23)cc1 was tested. Which Potency did it give?
A: inconclusive [inhibitor, partial curve, poor fit]

Q: Which Potency does the source give for CCOC(=O)[C@@H]1[C@H]2COc3ccccc3[C@@H]2N2C(=O)N(c3ccc(Cl)cc3)C(=O)[C@]12C here?
A: inconclusive [inhibitor, single point]

Q: For COCCN(C(=S)Nc1cccc(Cl)c1C)C(C)c1ccco1 (centres undefined), which Potency is on record?
A: inconclusive [inhibitor, single point]

Q: COc1cc(OC)c(C2=NOC(C(=O)N3CCCc4ccccc43)C2)cc1Cl (centres undefined) was tested. Which “activity change, negative = inhibition” value did it give?
A: inactive: -9.93%

Q: With Cc1ccc(NC(=O)CCc2c(C)nn(-c3ccc(N4CCCCC4)nn3)c2C)cc1C as the molecule, how does the Potency read?
A: inconclusive [inhibitor, single point]

Q: With CCOC(=O)C1=CCC(c2ccc(C#N)cc2)N(S(=O)(=O)c2ccc(C)cc2)C1 (centres undefined) as the molecule, how does the Potency read?
A: inconclusive [inhibitor, single point]

Q: Which Potency does the source give for Cc1ccsc1/C=C1\CCc2ccccc2C1=O here?
A: inconclusive [inhibitor, single point]

Q: With COCc1cc(C)nc(SCc2ccc(F)cc2)c1C#N as the molecule, how does the Potency read?
A: inconclusive [inhibitor, single point]

Q: How did the Potency turn out when COc1ccc(/C=N\NC(=O)c2ccccc2OC)cc1COc1ccccc1C was run?
A: inconclusive [inhibitor, partial curve, poor fit]

Q: Which Potency does the source give for O=C(Nc1cccn(Cc2c(Cl)cccc2Cl)c1=O)c1c(Cl)cccc1Cl here?
A: inconclusive [inhibitor, single point]

Q: For CC(NC(=O)CSc1cccc(C(F)(F)F)c1)c1ccccc1 (centres undefined), which Potency is on record?
A: inconclusive [inhibitor, single point]

Q: Which Potency does the source give for O=C(c1ccc(Br)cc1)C(CN1CCOCC1)c1ccccc1 (centres undefined) here?
A: inconclusive [inhibitor, partial curve, poor fit]

Q: O=C(CN1CCN(S(=O)(=O)c2ccc(F)c(Cl)c2)CC1)N1CCc2ccccc2C1 was tested. Which Potency did it give?
A: inconclusive [inhibitor, single point]

Q: With COc1ccccc1CNC(=O)c1ccc(-c2ccccc2Cl)o1 as the molecule, how does the Potency read?
A: inconclusive [inhibitor, single point]

Q: How did the Potency turn out when Cc1ccccc1/C(N)=N/OC(=O)N1c2ccccc2Sc2ccccc21 was run?
A: inconclusive [inhibitor, partial curve, poor fit]

Q: Which Potency does the source give for O=C(Nc1cccc(C(F)(F)F)c1)C1Cc2c(-c3cccc(F)c3)ccnc2O1 (centres undefined) here?
A: inconclusive [inhibitor, partial curve, poor fit]

Q: With COc1ccc(C2=C(N3CCN(c4cccc(C)c4)C(C)C3)c3ccccc3C2=O)cc1 (centres undefined) as the molecule, how does the Potency read?
A: inconclusive [inhibitor, partial curve, poor fit]

Q: How did the Potency turn out when CCOC(=O)CNC(=S)N(Cc1ccco1)Cc1ccccc1Cl was run?
A: inconclusive [inhibitor, partial curve, poor fit]

Q: With CCOc1ccccc1NC(=O)/C=C/C(N)=O as the molecule, how does the Potency read?
A: inconclusive [inhibitor, single point]

Q: How did the Potency turn out when CCOc1ccc(N(C)S(=O)(=O)c2cc(-c3cc(C)no3)ccc2C(C)C)cc1 was run?
A: inconclusive [inhibitor, full curve, poor fit]

Q: Which Potency does the source give for O=C(NC1CCCC1)c1ccc2c(c1)N(Cc1ccccc1)C(=O)c1ccccc1S2 here?
A: inconclusive [inhibitor, single point]

Q: With C=CCNC(=S)N(Cc1ccccc1)Cc1ccccc1 as the molecule, how does the Potency read?
A: inconclusive [inhibitor, partial curve, poor fit]

Q: Which Potency does the source give for O=C(O)C1C2C=CC(C2)C1C(=O)NCc1ccc(Cl)cc1Cl (centres undefined) here?
A: inconclusive [inhibitor, partial curve, poor fit]

Q: For C[C@@H](NC(=O)OC(C)(C)C)c1nnc(S(=O)(=O)Cc2ccccc2)o1, which Potency is on record?
A: inconclusive [inhibitor, single point]

Q: For O=C(CCc1ccccc1)Nc1c(F)c(F)c(F)c(F)c1F, which Potency is on record?
A: inconclusive [inhibitor, single point]

Q: Which Potency does the source give for Cc1ccc(SCCNC(=O)/C=C/c2ccccc2Cl)cc1 here?
A: inconclusive [inhibitor, single point]

Q: For CC(C)(C)c1ccc(CC(=O)N2CCC2(C)C(=O)NS(=O)(=O)c2cccc(Cl)c2)cc1 (centres undefined), which Potency is on record?
A: inconclusive [inhibitor, single point]

Q: With O=C(c1cccc(S(=O)(=O)N2CCOCC2)c1)N(Cc1ccc(F)cc1)Cc1ccco1 as the molecule, how does the Potency read?
A: inconclusive [inhibitor, single point]

Q: Which Potency does the source give for COc1ccc(CNCCC(c2ccc3c(c2)OCO3)c2ccccc2OC)cc1 (centres undefined) here?
A: inconclusive [inhibitor, single point]

Q: Which Potency does the source give for CCCN1C(=O)/C(=C/c2ccc(C)s2)NC1=S here?
A: inconclusive [inhibitor, partial curve, poor fit]

Q: For O=C(Cn1cc(S(=O)(=O)Cc2cccc(Cl)c2)c2ccccc21)Nc1ccccc1Cl, which “activity change, negative = inhibition” value is on record?
A: inactive: -6.08%
